# Source: PubChem BioAssay AID588334 (Broad Institute, 2011)
# About 2,300 (0.77%) of roughly 300,000 compounds were called active. Inconclusive means that the source gave no clear call. Such entries were picked first, then a sample of the others.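 How the source made its calls: active means mean activation of at least 80% with every replicate also reaching 80%; inconclusive means mean reaches 80% but some replicate falls short; inactive means the rest.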
# Experiment: MITF-driven TRPM1 luciferase induction in melanoma cells – cell-based, SK-MEL-5, single point, primary screen (AID 588334);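 further: 0% = neutral control wells and 100% = parthenolide positive control wells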
# Details: SK-MEL-5 TRPM1-promoter luciferase, 24 h; at 12.5 µM; stronger effect = higher value; % of positive control, neutral wells = 0
row,Compound,activation
1,c1ccc2oc(CCc3nc4ccccc4o3)nc2c1,inconclusive: 94.8%
2,O=C(Nc1cccc(F)c1)Nc1ccc2c(c1)OCO2,inconclusive: 82%
3,O=C(/C=C/c1c(F)cccc1Cl)Nc1nc2ccccc2[nH]1,inconclusive: 87.3%
4,CC(C)(C)c1cc(NC(=O)c2cccc([N+](=O)[O-])c2)no1,inconclusive: 82.6%
5,O=C(CCC1CCCC1)N=C1SC2CS(=O)(=O)CC2N1c1ccccc1F (stereo not drawn),inactive: 19.8%
6,Cc1nc(N2CCN(S(=O)(=O)c3ccccc3)CC2)c2cc(-c3ccccc3)sc2n1,inconclusive: 82.7%
7,COc1cc(/C=C/c2noc(-c3ccccc3O)n2)cc(OC)c1OC,inconclusive: 87.8%
8,CCOc1ccc(/C=C/C(=O)c2ccccc2)cc1,inconclusive: 82.5%
9,CCCc1ccc(-c2cc(NC(=O)CSc3n[nH]c(N)n3)n(-c3ccccc3)n2)cc1,inconclusive: 88.7%
10,O=C1c2ccccc2NC(c2ccc(-c3cccc(F)c3)o2)N1O (stereo not drawn),inconclusive: 85.6%
11,O=C1NC(c2ccccn2)Nc2sc3c(c21)CCC3 (stereo not drawn),inconclusive: 80%
12,O=C(CSc1cccc[n+]1[O-])c1ccc(-c2ccccc2)cc1,inconclusive: 85.6%
13,CCc1ccc(-c2cc(C(=O)Nc3c(C)n(C)n(-c4ccccc4)c3=O)c3ccccc3n2)s1,inactive: 18.7%
14,COC(=O)c1ccc(NCC(=O)c2ccccc2)cc1,active: 146%
15,CCS(=O)(=O)N1CCN(c2nc(-c3ccccc3)cs2)CC1,inconclusive: 82.3%
16,O=C(c1ccccc1)c1ccc2cc(O)ccc2c1,inactive: 46.7%
17,COc1nc(N)nc(NC(=O)c2cccs2)c1N=O,inactive: 3.73%
18,c1ccc(-c2noc(CCC3CCCC3)n2)cc1,active: 102%
19,COc1ccc(OCCCC(=O)Nc2nc(-c3ccccn3)cs2)cc1,inactive: -11.5%
20,COc1ccccc1-n1c(-c2ccccc2)c[nH]c1=S,inactive: -3.46%
21,COc1ccc(Nc2cc(Nc3ccccc3)ncn2)cc1,inconclusive: 86%
22,COCC(=O)Nc1nnc(-c2ccc(C(C)(C)C)cc2)s1,active: 90.6%
23,O=C(COc1ccccc1Br)Nc1ccc2c(c1)OCCCO2,active: 108%
24,O=C(CC1C(=O)N(Cc2ccccc2)C(=S)N1CCN1CCOCC1)Nc1ccc(F)cc1 (stereo not drawn),inactive: -2.49%
25,O=C(OCc1nc2ccccc2s1)c1ccccc1O,inconclusive: 80.7%

row,Compound,activation
1,O=C(COc1ccc(/C=N/NS(=O)(=O)c2ccccc2)cc1)Nc1cccc(Cl)c1,inactive: 38.7%
2,CN(C)C(=O)c1ccc(NC(=O)c2cc(-c3ccco3)nc3ccccc23)cc1,inactive: 6.51%
3,CCOc1cccc(OCCOc2ccccc2[N+](=O)[O-])c1,inconclusive: 97.2%
4,O=C(CCc1nnc(-c2ccccc2)o1)NC1CCCCC1,inconclusive: 92.2%
5,COc1cccc2sc3cc(NCc4ccc(C)o4)ccc3c(=O)c12,inconclusive: 82.8%
6,COc1ccccc1N/C(N)=N/c1nc(CSc2ccc(C)cc2)cc(=O)[nH]1,inactive: -15.9%
7,Oc1ccc(-c2csc(Nc3ncccn3)n2)c(O)c1,active: 104%
8,O=C1CCCCc2sc(Br)c([N+](=O)[O-])c2N1,inactive: -29.2%
9,CCc1ccc(C(=O)COC(=O)c2cccs2)cc1,inconclusive: 82.7%
10,O=C(OCc1ccccc1F)c1ccc2c(c1)-c1ccccc1C2=O,inconclusive: 86.5%
11,CCOc1ccc(-c2cn(-c3ccc(OC)cc3)c(SC)n2)cc1,inconclusive: 83.5%
12,Cn1c(C(=O)NCc2ccccn2)cc2c(=O)n3ccccc3nc21,inconclusive: 82.9%
13,Cc1nc(N)sc1-c1csc(Nc2ccccn2)n1,inactive: 0.458%
14,OC(c1ccccc1)C(Nc1ccccn1)c1ccccc1 (stereo not drawn),inactive: 5.99%
15,c1ccc(Oc2ccc(-c3ccn[nH]3)cc2)cc1,inconclusive: 83.3%
16,c1ccc(C2=Nc3ccccc3NC(c3ccccc3)C2)cc1 (stereo not drawn),inconclusive: 85.8%
17,CCOC(=O)c1c(C)[nH]c(C(=O)OCC(=O)c2ccccc2)c1C,active: 122%
18,COc1ccc(-c2csc(NC(=O)c3ccccc3NS(=O)(=O)c3ccc(F)c(F)c3)n2)cc1,inactive: -75.8%
19,COc1ccc(-c2coc3cc(OC4OC(CO)C(O)C(O)C4O)cc(O)c3c2=O)cc1 (stereo not drawn),inconclusive: 88.5%
20,COc1cccc(NC(=O)c2ccc(C(=O)c3ccccc3)o2)c1,inconclusive: 87.7%
21,COCCCN1CC(=O)N2C(c3cccc(C)c3)c3[nH]c4ccccc4c3C[C@H]2C1=O (stereo partly drawn),inactive: -2.65%
22,O=C(O)c1ccc(-c2nc(-c3ccc(Cl)cc3Cl)cs2)cc1,inconclusive: 83.6%
23,COc1cc(-c2[nH]ncc2CN2CCCC2c2nonc2C)cc(OC)c1OC (stereo not drawn),inactive: -12.3%
24,Fc1ccc(NC(=S)NNc2ncc(C(F)(F)F)cc2Cl)c(F)c1,inactive: -61.5%
25,CCOc1ccc2nc(SCc3ccccc3C#N)sc2c1,inconclusive: 84%

row,Compound,activation
1,CCCCCOC(=O)c1ccc(OC(=O)c2cncc(Br)c2)cc1,inconclusive: 81.1%
2,CCOC(=O)Nc1ccc2c(COC(=O)c3ccccc3O)cc(=O)oc2c1,inconclusive: 93.1%
3,COc1cc(C(C)=O)ccc1OCc1cc(C(=O)N(C)CCC2CCCCO2)no1 (stereo not drawn),inconclusive: 86.1%
4,Cc1cc(C)cc(NC(=O)CCc2c(C)nn(-c3ccc(N4CCCCC4)nn3)c2C)c1,inconclusive: 81.1%
5,CCN(CC)S(=O)(=O)c1cccc(C(=O)Nc2ccc3c(c2)OCO3)c1,inconclusive: 81.8%
6,COc1ccc(-c2nc(N)n[nH]2)cc1,inactive: 6.15%
7,O=C(CSc1nnc(CNc2ccc(F)cc2)o1)c1ccccc1,inactive: 3.34%
8,COc1cccc(C(=O)NC(=O)Nc2cc(C)on2)c1,active: 105%
9,CCOC(=O)/C(C#N)=C/c1cc(C)n(-c2ccc(C)cc2)c1C,active: 93%
10,CCN(CC)CCCN=C1N[C@@H](c2cccc(F)c2)C(C(=O)OC)=C(C)N1Cc1ccccc1,inactive: -94.3%
11,O=C(Nc1cccc(-c2ccc(N3CCOCC3)nn2)c1)c1ccc(F)cc1F,inconclusive: 80.5%
12,CC(C)(C)OC(=O)N/N=C\C=C\c1ccc2c(c1)OCO2,active: 119%
13,O=C(COC(=O)C1CC2C=CC1C2)NCc1ccco1 (stereo not drawn),inactive: -2.58%
14,COc1ccc(C(=O)O/N=C(\N)c2ccccn2)c(OC)c1,inactive: -4.1%
15,N#C/C(=N\Nc1cccc(F)c1)C(=N)N1CCCCCC1,inconclusive: 82.2%
16,CCCCC1(C)Nc2ccccc2-c2nc3ccccc3n21 (stereo not drawn),inconclusive: 83%
17,COc1cccc(OCc2cc(C(=O)N(C)Cc3nccn3C)no2)c1,inconclusive: 84.5%
18,COc1ccc(CN(C)Cc2c(O)ccc3ccccc23)cc1,inactive: -3.26%
19,COc1cccc(N=NC2C(=O)N(C(N)=S)N=C2C)c1 (stereo not drawn),inactive: 18.2%
20,Cc1ccc(CNC(=O)Nc2cccc(C)c2)cc1,inconclusive: 81.4%
21,O=C(NCC1CCCO1)c1ccc2c3n(nc2c1)-c1ccccc1CO3 (stereo not drawn),inconclusive: 85.9%
22,COc1ccc(NC(=O)COC(=O)C23CC4CC(CC(O)(C4)C2)C3)cc1Cl,active: 85.7%
23,CC(=O)c1sc(NC(=O)c2ccccc2F)nc1-c1ccccc1,active: 87.6%
24,COc1ccc(Cl)cc1NC(=O)C1CCN(C(=O)C2CC(=O)N(c3ccc(C)cc3)C2)CC1 (stereo not drawn),inactive: 0.513%
25,COc1ccc(C(=O)/C=C/c2ccc(OC)cc2OC)c(O)c1,active: 93.4%

row,Compound,activation
1,Cc1ccc2c(c1)C(=O)N1[C@H]3c4cc(C)ccc4OC[C@@H]3[C@H](c3ccccc3)[C@]1(C)C(=O)N2,inactive: -21.1%
2,COc1cccc(/C=C/C(=O)OCC(=O)c2ccccc2)c1OC,inconclusive: 80.8%
3,O=C(CCS(=O)(=O)c1ccccc1)NC1CCCCC1,active: 105%
4,C#CNC(=O)C1(CC=C)CCNCC1,inactive: 9.4%
5,CCN(Cc1ccccc1)C(=O)CCCOc1ccccc1,inconclusive: 80.1%
6,Oc1ccc(-c2nccc(-c3ccccn3)n2)cc1,active: 101%
7,CCCC(=O)Nc1nc(-c2ccccc2)ns1,inconclusive: 80.6%
8,Clc1ccc(-c2cn3c(n2)CCC3)cc1,active: 92.5%
9,COc1ccccc1OCC(=O)O/N=C(\N)c1ccccn1,inconclusive: 83.1%
10,N#Cc1cc2cc3c(cc2nc1SCC(=O)N1CCCC1)OCCO3,active: 87.1%
11,COc1cccc(NC(=O)Nc2ccc3nsnc3c2)c1,inconclusive: 81.9%
12,CC(=O)c1sc(NC(=O)c2ccc3c(c2)OCO3)nc1C,active: 114%
13,O=C(c1ccc(O)c(Br)c1)c1cc(Br)ccc1O,inactive: -9.28%
14,Fc1ccccc1NC(=S)NCCc1ccc(Cl)cc1,inconclusive: 82.4%
15,COc1ccc(C(=O)/C=C/Nc2cc(C)on2)cc1,inconclusive: 81.3%
16,CNC(=O)Cn1nc(-c2ccc(Cl)cc2)c2ccccc2c1=O,inactive: 4.01%
17,CCOC(=O)Cc1csc(SCC(=O)c2c(N)n(CC(C)C)c(=O)n(C)c2=O)n1,inactive: -18.8%
18,Cc1ccccc1NC(=S)NCC1CCN(C(C)c2ccccc2)C1 (stereo not drawn),inactive: -7.24%
19,Cc1cccc(-c2noc(Cc3ccccc3)n2)c1,inconclusive: 95.5%
20,Cc1ccc(-c2nnc(-c3cccnc3)o2)cc1,inconclusive: 81%
21,Cc1ccc(C(=O)NNC(=O)c2cccs2)cc1,inconclusive: 84.1%
22,COc1ccc2cc(C(=O)NCCc3ccccc3)[nH]c2c1,inconclusive: 85%
23,c1ccc(CCc2nc(-c3ccccn3)no2)cc1,active: 128%
